Experimental data from PubChem BioAssay AID504845 (National Center for Advancing Translational Sciences (NCATS), 2011).
Hit rate of the full screen: of about 390,000 compounds, about 150 (0.038%) were called active. Inconclusive results, whose numbers are uncertain, are shown with a selection of clear calls. Calls come from the whole dose curve; as a rule, active = well fitted inhibition curve with a large enough effect; inconclusive = small, poorly fitted or top-dose-only effect; inactive = no such curve, though single readings can be large or run the other way. A potency beside an inconclusive call is a rough fit, not a confirmed value.

Molecular target: Regulator of G-protein signaling 4 (Homo sapiens) (UniProt P49798)
Experiment: Inhibitors of Regulator of G Protein Signaling (RGS) 4: qHTS; note: nearly all actives have a fitted effect of over 75% in size
Settings: Transcreener GDP fluorescence polarization, RGS4-accelerated GTP hydrolysis; series mostly up to 114 µM
Method in brief: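 MLSMR compounds (23 nl, pin-transferred) preincubated 10 min at room temperature with a 500nM (2x) first reagent, then RGS4 at 900nM (2x) plus Transcreener GDP mix added; fluorescence polarization (620/688 nm) read before and after 90 min at 30 °C.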
Potency is the fitted concentration of half-maximal effect; tags give direction and shape of the fitted curve.

Sequence of UniProt P49798 (P49798 whole entry, looked up): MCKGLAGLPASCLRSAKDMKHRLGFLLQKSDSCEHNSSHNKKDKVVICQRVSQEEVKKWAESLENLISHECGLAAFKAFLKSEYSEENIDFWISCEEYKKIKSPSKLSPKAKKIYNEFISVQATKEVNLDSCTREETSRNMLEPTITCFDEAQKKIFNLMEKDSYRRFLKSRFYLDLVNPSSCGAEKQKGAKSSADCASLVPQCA

Compound | Potency
Cc1cc([N+](=O)[O-])ccc1NC(=O)CSc1nncn1-c1cccnc1 | inconclusive: 70.8 µM [inhibitor, partial curve, poor fit]
Oc1ccc(NCc2ccccc2OCc2ccccc2)cc1 | inconclusive: 79.4 µM [inhibitor, partial curve, poor fit]
CCCOc1ccc(/C=C2/C(=O)ON=C2C)cc1Cl | inconclusive: 17.8 µM [inhibitor, full curve, poor fit]
COc1ccc(-c2nc(S(=O)(=O)c3ccccc3)c(N3CCC(C)CC3)o2)cc1 | inactive
O=C(NC1CCN(Cc2ccccc2)CC1)c1ccc(I)cc1 | inactive
Cc1nn(-c2ccccc2)c2[nH]c(=O)c(CNc3ccc4c(c3)OCCO4)cc12 | inconclusive: 89.1 µM [inhibitor, partial curve, poor fit]
CC(C)c1ccc2c(c1)c(SC(C)(C)C)c(CC(C)(C)C(=O)O)n2Cc1ccc(Cl)cc1 | inconclusive: 16.8 µM [inhibitor, partial curve, poor fit]
O=C(Oc1oc(-c2ccco2)nc1C=Nc1ccccc1)c1ccco1 | inconclusive: 79.4 µM [inhibitor, partial curve, poor fit]
COc1ccc(C(=O)c2sc3nc(-c4ccccc4)ccc3c2N)cc1OC | inconclusive: 89.1 µM [inhibitor, partial curve, poor fit]
Cc1nn(C)c(C)c1/C=N/N=C1\CCC2C3CCc4cc(O)ccc4C3CCC12C (stereo unspecified) | inconclusive: 100 µM [inhibitor, single point]
COc1cc(NC(=O)COC(=O)CNC(=O)c2ccc(C)s2)cc(OC)c1 | inconclusive: 79.4 µM [inhibitor, partial curve, poor fit]
Cc1ccc(CNS(=O)(=O)c2ccc3[nH]c4c(c3c2)CCCCC4)cc1 | inactive
O=C(COc1ccc(Br)cc1)N/N=C1/SCC(=O)N1Cc1ccco1 | inconclusive: 20 µM [inhibitor, full curve, poor fit]
COc1ccc(Cl)cc1NC(=O)CCN1CCN(C)CC1 | inconclusive: 79.4 µM [inhibitor, single point]
CN1CCCCC1CCN1c2ccccc2Sc2ccc(S(C)=O)cc21 (stereo unspecified) | inactive
CC(C)CCNC(=O)CN(CC1CCCO1)C(=O)CCC(=O)Nc1nccs1 (stereo unspecified) | inconclusive: 89.1 µM [inhibitor, single point]
O=C(Nc1ncccc1O)c1ccc(S(=O)(=O)Nc2ccccc2)cc1 | inactive
Cc1ccc(NC(=O)Cc2c(C(=O)O)n(C)c3ccccc23)cc1F | inconclusive: 79.4 µM [inhibitor, single point]
Cc1ccnc(OC(C(=O)O)C(OCc2ccccc2)(c2ccc(F)cc2)c2ccc(F)cc2)n1 (stereo unspecified) | inconclusive: 89.1 µM [inhibitor, partial curve, poor fit]
O=C(CN(C1CCCCC1)S(=O)(=O)c1ccc(F)cc1)NCC1CCCO1 (stereo unspecified) | inconclusive: 79.4 µM [inhibitor, single point]
N#C/C=C1/NC(=O)c2ccccc2S1 | inconclusive: 89.1 µM [inhibitor, single point]
CC(/C=C/C(=O)NO)=C\[C@@H](C)C(=O)c1ccc(N(C)C)cc1 | inconclusive: 37.7 µM [inhibitor, partial curve, poor fit]

Compound | Potency
N#Cc1c(-c2ccccc2)cc(-c2ccc3c(c2)OCO3)[nH]c1=O | inactive
CCc1ccc(C(=O)NC(=S)Nc2ccccc2N2CCOCC2)cc1 | inconclusive: 56.2 µM [inhibitor, partial curve, poor fit]
CC(NC(=O)CSCc1ccc(Br)cc1)c1ccccc1 (stereo unspecified) | inactive
COc1ccc2c(c1)/C(=C\c1cccc(/C=C3/C(=O)Nc4ccc(OC)cc43)n1)C(=O)N2 | inconclusive: 100 µM [inhibitor, partial curve, poor fit]
Cc1ccc(-n2cc(CN(C)Cc3nccn3C)c(-c3ccc(F)cc3)n2)cc1 | inconclusive: 100 µM [inhibitor, single point]
Cn1c(CNC(=O)c2ccc(F)cc2)nc2ccccc21 | inconclusive: 22.4 µM [inhibitor, full curve, poor fit]
Fc1ccc(Br)cc1SCCc1ccncc1 | inconclusive: 28.2 µM [inhibitor, full curve, poor fit]
O=C1C2C3C=CC(C3)C2C(=O)N1CCN1CCN(Cc2ccc([N+](=O)[O-])cc2)CC1 (stereo unspecified) | inconclusive: 44.7 µM [inhibitor, partial curve, poor fit]
Cc1ccc(/C=C/C(=O)NCCc2ccccc2)o1 | inconclusive: 70.8 µM [inhibitor, partial curve, poor fit]
CCCCn1c(SCC(=O)Nc2sc3c(c2C(N)=O)CCC3)nnc1-c1ccccc1 | inconclusive: 79.4 µM [inhibitor, partial curve, poor fit]
CCc1c(C)sc(NC(=O)c2ccoc2C)c1C(N)=O | inconclusive: 35.5 µM [inhibitor, partial curve, poor fit]
N[C@@H](CCS(=O)O)C(=O)O | inconclusive: 0.0053 µM [inhibitor, full curve, poor fit]
Cc1ccc(NC(=O)CS(=O)Cc2nc(-c3ccc(C)cc3)oc2C)cc1 (stereo unspecified) | inconclusive: 79.4 µM [inhibitor, partial curve, poor fit]
Cc1sc(NC(=O)C2CCCCC2C(=O)O)c(C(N)=O)c1-c1ccc(C(C)(C)C)cc1 (stereo unspecified) | inconclusive: 44.7 µM [inhibitor, partial curve, poor fit]
COc1cccc(/C=N/NC(=O)c2c(C)nc3ccc(Cl)cn23)c1O | inactive
CCCOC(=O)Nc1ccc(N2CCCCC2)cc1 | inconclusive: 89.1 µM [inhibitor, single point]
Cc1cc(C)cc(NC(=O)C(=O)NCC(c2ccc3c(c2)OCO3)N2CCN(C)CC2)c1 (stereo unspecified) | inactive
Cc1ccc(C(=O)NC(=S)NCC2CCCO2)cc1Br (stereo unspecified) | inconclusive: 89.1 µM [inhibitor, single point]
Cc1cccc(-c2nnc(SCc3cc(=O)c4cccc(Cl)c4[nH]3)n2C)c1 | inactive
NC(=O)c1c(NC(=S)Nc2ccccc2)sc2c1CCCC2 | inconclusive: 39.8 µM [inhibitor, partial curve, poor fit]
CCOc1ccc(NC(=O)Cn2c3ncccc3c(=O)n2-c2ccc(CC)cc2)cc1 | inconclusive: 79.4 µM [inhibitor, single point]
O=C(CSc1nccc(=O)[nH]1)N1CCN(c2ccccc2)CC1 | inconclusive: 28.2 µM [inhibitor, full curve, poor fit]

Compound | Potency
O=C1NC(=O)/C(=C/c2ccc3c(c2)OC(F)(F)O3)S1 | inconclusive: 37.7 µM [inhibitor, single point]
Cc1ccc2onc(CC(=O)N3CCN(c4ccc(F)cc4)CC3)c2c1 | inactive
c1ccc(-c2ccccc2OCCCN2CCOCC2)cc1 | inactive
COc1cc(/C=C(/C#N)c2nc3ccccc3c(=O)[nH]2)ccc1O | inconclusive: 79.4 µM [inhibitor, partial curve, poor fit]
COc1ccc(N(CC(=O)NCC(C)C)S(=O)(=O)c2ccccc2)cc1 | inconclusive: 50.1 µM [inhibitor, partial curve, poor fit]
S=C(Nc1ccc(Cl)cc1)c1nc2ccccc2s1 | inactive
Cc1ccccc1CS(=O)(=O)CCC(=O)NCCCN1CCN(c2ccccc2F)CC1 | inactive
Cc1nn2c(=S)[nH]nc2[nH]c1=O | inconclusive: 17.8 µM [inhibitor, full curve, poor fit]
O=C1CC(c2ccco2)CC(O)=C1C=NCC1NCCc2ccccc21 (stereo unspecified) | inconclusive: 50.1 µM [inhibitor, partial curve, poor fit]
Cc1ccccc1NC(=O)c1c(C)[nH]c(=S)c(C#N)c1-c1ccc(Cl)cc1 | inconclusive: 31.6 µM [inhibitor, full curve, poor fit]
Cc1cc([N+](=O)[O-])c(C)cc1-c1ccc(/C=N/NC(=O)Cn2nnnc2N)o1 | inconclusive: 56.2 µM [inhibitor, partial curve, poor fit]
Cc1cccc(N(CC(O)Cn2c3ccccc3c3ccccc32)S(=O)(=O)c2ccc(F)cc2)c1 (stereo unspecified) | inactive
O=C(N/N=C/c1ccc(OCCCF)cc1)c1cc(OCC(F)(F)F)ccc1OCC(F)(F)F | inactive
CCN(CC)CCNC(=O)c1c(C)oc2ncnc(N3CCOCC3)c12 | inactive
CCOC(=O)c1c(NC(=O)Cn2nc(C(=O)O)c3ccccc3c2=O)sc(CC)c1C | inconclusive: 89.1 µM [inhibitor, single point]
Cc1cnc(NC(=O)CSc2nnc(C)n2N)s1 | inconclusive: 89.1 µM [inhibitor, single point]
CCOc1ccc(NC(=O)c2c(NCc3cccnc3)sc3c2CCCC3)cc1 | inconclusive: 79.4 µM [inhibitor, partial curve, poor fit]
O=C(O)c1cccc2cccc(-c3c4ccc(=O)c(O)c-4oc4c(O)c(O)ccc34)c12 | inconclusive: 56.2 µM [inhibitor, partial curve, poor fit]
CCOC(=O)CSc1n[nH]c(=S)s1 | inactive
O=c1[nH]c2ccccc2n2c(-c3ccccc3)nnc12 | inconclusive: 22.4 µM [inhibitor, full curve, poor fit]
CCc1cccc(C)c1NC(=O)c1cc(C)oc1C | inactive
H-EQKQLQ-OH | inconclusive: 0.0067 µM [inhibitor, full curve, poor fit]
